Laboratory results published in publication PMC12254070, “Antimicrobial Peptides Design Using Deep Learning and Rational Modifications: Activity in Bacteria, Candida albicans, and Cancer Cells” (Current Microbiology, 2025).
Ends that are not written are not given here.

Tested on: human red blood cells
Assay: Hemolysis assay
Set-up: key: *: For some of the peptides, hemolytic activity assays did not achieve hemolysis greater than 10% at the evaluated concentrations; therefore, a value of 100 μM was used to calculate the therapeutic indices
Details: class symbol; 10% hemolysis not reached at evaluated concentrations (3.13-50 µM)
Experimental: Human blood from a healthy fasting volunteer donor was collected in sodium citrate tubes and centrifuged at 1000 XG at room temperature for 7 min. The sediment was washed 3 times with sterile 0.9% phosphate buffered saline (PBS), centrifuged at 1000 XG and the supernatants were discarded. […] The treated erythrocytes were incubated at 37 °C for 3 h at 90 rpm and centrifuged at 1000 XG at room temperature for 5 min. Fifty µL of the supernatants were transferred to a 96-well plate, and the absorbances were measured at 545 nm. Triton X-100 (0.1%) was used as a positive control, and sterile 0.9% PBS as a negative control. Each treatment had three replicate wells, and the percentage of hemolysis was calculated at 50 µM for each peptide using the following equation. %Hemolysis=ODPEP-OD0.9%PBS/OD0.1%Triton×100-OD0.9%PBS×100% where OD(x) is the optical density of each solution at 545 nm. The minimum hemolytic concentration (MHC) was determined as the lowest peptide concentration that induced 10% hemolysis of human red blood cells.
The hemolytic activity curve was used to interpolate the minimum peptide concentration that results in 10% hemolysis (MHC).

| Sequence | MHC (minimum hemolytic concentration) |
| --- | --- |
| ALRKLLKKLAKAVKA [OrP3M] | * |
| IKKWGKVLKKLI [VeP1M] | * |
